# Measured values taken from the supplement of paper PMC8728848.
# Some of the results follow.
# B1: CVN-E41G (protein)
# chain: MHHHHHHENLYFQSGNFSQACYNSAIQGSVLTSTCIRTNGGYNTSSIDLNSVIGNVDGSLKWQGSNFIETCRNTQLAGSSELAAECKTRAQQFVSTKINLDDHIAAIDGTLKYE
# How the values were obtained:
# Test in all cases: glycan array binding signal (z-score within array); higher = stronger binding
# Settings in all cases: glycan notation: IUPAC condensed, linker removed; mutation: E41G
# Fuc(a1-2)Gal = target: Fuc(a1-2)Gal
# How it was run: (§1)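 Glycan array data were curated from 3228 arrays in the Consortium for Functional Glycomics database and kept only where the protein sequence was available. Glycan names were converted to IUPAC-condensed notation, and columns mapping to the same glycan were averaged. The binding signal is a within-array Z-score, averaged across arrays of the same protein sequence at different concentrations or buffers and across linkers. Negative Z-scores can be read as non-binding.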
# Fuc(a1-2)Gal(b1-3)GalNAc = target: Fuc(a1-2)Gal(b1-3)GalNAc
# How it was run: as §1
# [1] = target: Fuc(a1-2)Gal(b1-3)GalNAc(a1-3)[Fuc(a1-2)]Gal(b1-4)Glc
# How it was run: as §1
# [2] = target: Fuc(a1-2)Gal(b1-3)GalNAc(a1-3)[Fuc(a1-2)]Gal(b1-4)GlcNAc
# How it was run: as §1
# [3] = target: Fuc(a1-2)Gal(b1-3)GalNAc(b1-3)Gal
# How it was run: as §1
# [4] = target: Fuc(a1-2)Gal(b1-3)GalNAc(b1-3)Gal(a1-4)Gal(b1-4)Glc
# How it was run: as §1
# [5] = target: Fuc(a1-2)Gal(b1-3)GalNAc(b1-4)[Neu5Ac(a2-3)]Gal(b1-4)Glc
# How it was run: as §1
# Fuc(a1-2)Gal(b1-3)GlcNAc = target: Fuc(a1-2)Gal(b1-3)GlcNAc
# How it was run: as §1
# [6] = target: Fuc(a1-2)Gal(b1-3)GlcNAc(b1-2)Man(a1-3)[Fuc(a1-2)Gal(b1-3)GlcNAc(b1-2)Man(a1-6)]Man(b1-4)GlcNAc(b1-4)GlcNAc
# How it was run: as §1
# [7] = target: Fuc(a1-2)Gal(b1-3)GlcNAc(b1-2)Man(a1-3)[Fuc(a1-2)Gal(b1-3)GlcNAc(b1-2)Man(a1-6)]Man(b1-4)GlcNAc(b1-4)[Fuc(a1-6)]GlcNAc
# How it was run: as §1
# [8] = target: Fuc(a1-2)Gal(b1-3)GlcNAc(b1-3)Gal(b1-4)Glc
# How it was run: as §1
# [9] = target: Fuc(a1-2)Gal(b1-3)GlcNAc(b1-3)GalNAc
# How it was run: as §1
# [10] = target: Fuc(a1-2)Gal(b1-3)GlcNAc(b1-3)[Fuc(a1-2)Gal(b1-3)GlcNAc(b1-6)]GalNAc
# How it was run: as §1
# [11] = target: Fuc(a1-2)Gal(b1-3)GlcNAc(b1-3)[Gal(b1-4)GlcNAc(b1-6)]Gal(b1-4)Glc
# How it was run: as §1
# [12] = target: Fuc(a1-2)Gal(b1-3)GlcNAc(b1-3)[Neu5Ac(a2-6)Gal(b1-4)GlcNAc(b1-6)]Gal(b1-4)Glc
# How it was run: as §1
# [13] = target: Fuc(a1-2)Gal(b1-3)GlcNAc6S
# How it was run: as §1
# [14] = target: Fuc(a1-2)Gal(b1-3)[Fuc(a1-4)]GlcNAc
# How it was run: as §1
# [15] = target: Fuc(a1-2)Gal(b1-3)[Fuc(a1-4)]GlcNAc(b1-2)Man(a1-3)[Fuc(a1-2)Gal(b1-3)[Fuc(a1-4)]GlcNAc(b1-2)Man(a1-3)]Man(b1-4)GlcNAc(b1-4)GlcNAc
# How it was run: as §1
# [16] = target: Fuc(a1-2)Gal(b1-3)[Fuc(a1-4)]GlcNAc(b1-2)Man(a1-3)[Fuc(a1-2)Gal(b1-3)[Fuc(a1-4)]GlcNAc(b1-2)Man(a1-6)]Man(b1-4)GlcNAc(b1-4)[Fuc(a1-6)]GlcNAc(b1-4)[Fuc(a1-6)]GlcNAc
# How it was run: as §1
# [17] = target: Fuc(a1-2)Gal(b1-3)[Fuc(a1-4)]GlcNAc(b1-3)[Fuc(a1-3)[Gal(b1-4)]GlcNAc(b1-6)]Gal(b1-4)Glc
# How it was run: as §1
# [18] = target: Fuc(a1-2)Gal(b1-3)[Fuc(a1-4)]GlcNAc(b1-3)[Gal(b1-4)GlcNAc(b1-6)]Gal(b1-4)Glc
# How it was run: as §1
# [19] = target: Fuc(a1-2)Gal(b1-4)Fuc(a1-3)]GlcNAc(b1-2)Man(a1-3)[Fuc(a1-2)Gal(b1-4)[Fuc(a1-3)]GlcNAc(b1-2)Man(a1-6)]Man(b1-4)GlcNAc(b1-4)GlcNAc
# How it was run: as §1
# Fuc(a1-2)Gal(b1-4)Glc = target: Fuc(a1-2)Gal(b1-4)Glc
# How it was run: as §1
# Fuc(a1-2)Gal(b1-4)Glc6S = target: Fuc(a1-2)Gal(b1-4)Glc6S
# How it was run: as §1
# Fuc(a1-2)Gal(b1-4)GlcNAc = target: Fuc(a1-2)Gal(b1-4)GlcNAc
# How it was run: as §1
# [20] = target: Fuc(a1-2)Gal(b1-4)GlcNAc(b1-2)Man
# How it was run: as §1
# [21] = target: Fuc(a1-2)Gal(b1-4)GlcNAc(b1-2)Man(a1-3)[Fuc(a1-2)Gal(b1-4)GlcNAc(b1-2)Man(a1-6)]Man(b1-4)GlcNAc(b1-4)GlcNAc
# How it was run: as §1
# [22] = target: Fuc(a1-2)Gal(b1-4)GlcNAc(b1-2)Man(a1-3)[Fuc(a1-2)Gal(b1-4)GlcNAc(b1-2)Man(a1-6)]Man(b1-4)GlcNAc(b1-4)[Fuc(a1-6)]GlcNAc
# How it was run: as §1
# [23] = target: Fuc(a1-2)Gal(b1-4)GlcNAc(b1-2)[Fuc(a1-2)Gal(b1-4)GlcNAc(b1-4)]Man(a1-3)[Fuc(a1-2)Gal(b1-4)GlcNAc(b1-2)Man(a1-6)]Man(b1-4)GlcNAc(b1-4)GlcNAc
# How it was run: as §1
# [24] = target: Fuc(a1-2)Gal(b1-4)GlcNAc(b1-3)Gal(b1-4)GlcNAc
# How it was run: as §1
binder,measurement,setting,value
B1,glycan array binding signal (z-score),Fuc(a1-2)Gal,-0.163
same,glycan array binding signal (z-score),Fuc(a1-2)Gal(b1-3)GalNAc,-0.178
same,glycan array binding signal (z-score),[1],-0.148
same,glycan array binding signal (z-score),[2],-0.099
same,glycan array binding signal (z-score),[3],0.145
same,glycan array binding signal (z-score),[4],-0.237
same,glycan array binding signal (z-score),[5],-0.131
same,glycan array binding signal (z-score),Fuc(a1-2)Gal(b1-3)GlcNAc,-0.155
same,glycan array binding signal (z-score),[6],0.1
same,glycan array binding signal (z-score),[7],0.228
same,glycan array binding signal (z-score),[8],-0.155
same,glycan array binding signal (z-score),[9],-0.168
same,glycan array binding signal (z-score),[10],-0.093
same,glycan array binding signal (z-score),[11],-0.196
same,glycan array binding signal (z-score),[12],-0.169
same,glycan array binding signal (z-score),[13],-0.182
same,glycan array binding signal (z-score),[14],-0.157
same,glycan array binding signal (z-score),[15],0.006
same,glycan array binding signal (z-score),[16],0.123
same,glycan array binding signal (z-score),[17],-0.172
same,glycan array binding signal (z-score),[18],-0.148
same,glycan array binding signal (z-score),[19],0.115
same,glycan array binding signal (z-score),Fuc(a1-2)Gal(b1-4)Glc,-0.171
same,glycan array binding signal (z-score),Fuc(a1-2)Gal(b1-4)Glc6S,-0.129
same,glycan array binding signal (z-score),Fuc(a1-2)Gal(b1-4)GlcNAc,-0.183
same,glycan array binding signal (z-score),[20],-0.138
same,glycan array binding signal (z-score),[21],0.116
same,glycan array binding signal (z-score),[22],0.545
same,glycan array binding signal (z-score),[23],0.314
same,glycan array binding signal (z-score),[24],-0.163
